Several values for one entry are separate records, joined by “and”; a condition that tells them apart may be missing. Equal entries are not always repeated. The whole screen tested about 270,000 compounds, of which about 5,800 (2.1%) were called active. Inconclusive means that the source gave no clear call. Such entries were picked first, then a sample of the others. The call rests on the fitted dose curve; in most records, active means well fitted inhibition curve with a large enough effect; inconclusive means small, poorly fitted or top-dose-only effect; inactive means flat fitted curve, though single readings scatter. Where the call is inconclusive, the potency comes from a doubtful curve fit.
target: Microtubule-associated protein tau (Homo sapiens) (UniProt P10636); assay: qHTS for Inhibitors of Tau Fibril Formation, Thioflavin T Binding; conditions: recombinant tau K18 P301L, heparin-induced fibrillization, ThT fluorescence; series mostly up to 57.4 µM; further: nearly all actives have a fitted effect of over 55% in size
Chain of UniProt P10636 (P10636 whole entry, looked up): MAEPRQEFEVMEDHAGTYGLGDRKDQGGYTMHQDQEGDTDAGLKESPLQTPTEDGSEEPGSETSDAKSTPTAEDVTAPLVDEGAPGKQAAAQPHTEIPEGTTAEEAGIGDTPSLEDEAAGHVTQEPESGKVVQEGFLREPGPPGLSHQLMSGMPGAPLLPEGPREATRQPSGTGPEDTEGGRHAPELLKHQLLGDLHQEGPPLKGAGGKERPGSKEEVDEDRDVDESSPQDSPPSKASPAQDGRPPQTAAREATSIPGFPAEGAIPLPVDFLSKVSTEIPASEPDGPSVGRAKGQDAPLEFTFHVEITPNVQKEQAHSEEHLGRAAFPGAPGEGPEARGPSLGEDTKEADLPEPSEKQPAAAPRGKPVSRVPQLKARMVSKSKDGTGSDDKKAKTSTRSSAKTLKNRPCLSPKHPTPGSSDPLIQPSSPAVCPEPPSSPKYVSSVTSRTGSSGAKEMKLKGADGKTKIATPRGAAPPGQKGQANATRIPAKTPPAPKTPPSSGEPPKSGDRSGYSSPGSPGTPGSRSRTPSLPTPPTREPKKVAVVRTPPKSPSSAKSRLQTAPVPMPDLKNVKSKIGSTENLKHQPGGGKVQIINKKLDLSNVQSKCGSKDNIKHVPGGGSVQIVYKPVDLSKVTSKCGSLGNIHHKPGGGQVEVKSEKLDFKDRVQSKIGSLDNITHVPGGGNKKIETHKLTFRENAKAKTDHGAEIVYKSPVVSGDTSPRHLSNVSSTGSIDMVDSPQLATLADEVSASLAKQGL
Method in brief: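 Fibril formation assay: tau K18 P301L at 15 uM with trace Alexa 594 label, heparin inducer 20 uM, pH 7 sodium acetate buffer, 37 C for 6 hr; endpoint ThT signal.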
On the % scale 0 is the no-effect control and ±100 the full control effect; potency means the concentration at half of the fitted maximal effect; tags describe the fitted curve by direction and shape.

Compound | Potency | activity, negative = inhibition
CCOC(=O)C1CCN(c2nc3cc(OC)ccc3cc2C#N)CC1 | inconclusive: 14.1 µM [inhibitor, single point] | 
C(=C\c1ccco1)/C1=NN(c2ccccc2)C(c2ccco2)C1 (stereo unspecified) | inconclusive: 17.8 µM [inhibitor, single point] | 
Cc1nn(-c2ccc([N+](=O)[O-])cc2)c2c1C(c1ccc(OC(F)F)cc1)N1C(=N2)C(=O)Nc2ccccc21 (stereo unspecified) | inconclusive: 44.7 µM [inhibitor, single point] | 
CN1c2ccsc2/C(=N/Nc2ccc(F)cc2)CS1(=O)=O | inconclusive: 3.55 µM [inhibitor, full curve] | 
COC(=O)C1=C(C)N(c2cccc(C)c2)C(=O)/C1=C\c1cccs1 | inconclusive: 25.1 µM [inhibitor, single point] | 
Cc1ccc(Cl)cc1N1CCN(S(=O)(=O)c2ccc3c(c2)CCCN3C(=O)C2CCC2)CC1 | inactive | 
CN(C)S(=O)(=O)c1cccc(N=c2scc(-c3ccc4c(c3)NC(=O)CO4)n2CC2CCCO2)c1 (stereo unspecified) | inconclusive: 39.8 µM [inhibitor, partial curve] | 
COc1ccc(-n2c(O)c(/C=N/NS(=O)(=O)c3cc(C)ccc3C)c3ccccc3c2=O)cc1OC | inconclusive: 5.01 µM [inhibitor, full curve, poor fit] | 
CCn1cc(S(=O)(=O)c2cccc(Cl)c2)c(=O)c2cc(F)c(N3CCN(c4ccccc4)CC3)cc21 | inconclusive: 39.8 µM [inhibitor, single point] | 
COC(=O)C1=C(C(=O)OC)[C@@H]2N(C)c3ccccc3[C@@]23C[C@@H](C(=O)OC)N(S(=O)(=O)c2ccc(C(F)(F)F)cc2)C3=N1 |  | inactive: -3.85% [at 11.5 µM]
Cc1c(C2=CCN(S(=O)(=O)c3ccc(Br)cc3)CC2)c2ccccc2n1C | inactive | 
CCc1ccc(-n2c(Cc3ccccc3)nnc2SCc2nc(-c3cccs3)no2)cc1 | inconclusive: 35.5 µM [inhibitor, single point] | 
Cc1nn(-c2ccccc2)c(Cl)c1/C=C/C(=O)c1ccccc1 | inconclusive: 17.8 µM [inhibitor, partial curve] | 
Cc1ccc(C)n1-c1nnc(N2CCCC(C(=O)NCc3cccc(Cl)c3)C2)s1 (stereo unspecified) | inconclusive: 22.4 µM [inhibitor, single point] | 
O=[N+]([O-])c1cccc(-c2nc(Oc3ccc(Cl)cc3)c3ccccc3n2)c1 | inconclusive: 17.8 µM [inhibitor, partial curve] | 
CCOCC(=O)N1CCN(c2ccc([N+](=O)[O-])cc2)CC1 | inconclusive: 10 µM [inhibitor, partial curve] | 
CCc1c(C)nc2ncnn2c1N1CCC(C(=O)N2CCN(c3ccc(F)cc3)CC2)CC1 | inconclusive: 12.6 µM [inhibitor, partial curve] | 
COc1cc(/C=C/c2[nH]c(=O)[nH]c(=O)c2[N+](=O)[O-])ccc1OCCC(C)C | inconclusive: 17.8 µM [inhibitor, partial curve] | 
C=C(C)CNC(=S)N/N=C/c1c(F)cccc1F | inactive | 
CSc1ccc(-c2nc(O)c3cnccn23)cc1 | inconclusive: 25.1 µM [inhibitor, single point] | 
CCOc1ccccc1NC(=O)c1cnn2c(C(F)F)cc(-c3ccccc3)nc12 | inconclusive: 22.4 µM [inhibitor, single point] | 

Compound | Potency | activity, negative = inhibition
NC(=O)c1ccc(NC(=O)c2cnc3ccccc3n2)cc1 | inconclusive: 15.8 µM [inhibitor, partial curve] | 
COc1cccc(CCNC(=O)c2c(O)nc3ccccn3c2=O)c1 | inactive | 
CCOc1ccc(NC(=O)CN2CCN(CC(=O)Nc3cc(OC)cc(OC)c3)CC2)cc1 | inactive | 
Fc1cccc(Nc2ncnc3sc4c(c23)CCC4)c1 | inconclusive: 20 µM [inhibitor, partial curve] | 
COc1ccc(-c2cc(C(F)(F)F)n3nc(C(=O)Nc4ccccc4SC)cc3n2)cc1OC | inconclusive: 8.91 µM [inhibitor, partial curve, poor fit] | 
Nn1cnnc1N/N=C\c1ccc(-c2ccccc2[N+](=O)[O-])o1 | active: 7.94 µM | 
Cc1cccc(-c2nc3c(c(SCC(=O)N4CCOCC4)n2)CCCC3)c1 | inconclusive: 31.6 µM [inhibitor, partial curve, poor fit] | 
CC(C)c1[nH]nc2c1C(c1cccnc1)C(C#N)=C(N)O2 (stereo unspecified) | inactive | 
Cc1ccc(C)c(NC(=O)c2cc(S(=O)(=O)N3CCCCCC3)ccc2F)c1 | inactive | 
Cc1cccnc1NC(=S)Nc1ccc(Cl)c(Cl)c1 | inactive | 
CC(=O)Nc1ccc(NC(=O)COc2ccc([N+](=O)[O-])cc2)cc1 | inconclusive: 28.2 µM [inhibitor, partial curve] | 
CC1=C(C(=O)Nc2ccccc2)C(c2cccs2)n2nc(SCc3ccccc3F)nc2N1 (stereo unspecified) | inactive | 
COCCn1c(SCC(=O)NCc2ccco2)nnc1-c1c[nH]c2ccccc12 | inconclusive: 20 µM [inhibitor, partial curve] | 
COc1ccccc1OCCNC(=O)c1cc(F)c(F)cc1Cl | inactive | 
Cc1ccc(OCC(=O)c2cc(C)n(Cc3ccco3)c2C)c([N+](=O)[O-])n1 | inconclusive: 12.6 µM [inhibitor, partial curve] | 
Cn1cccc1C(=O)NC(=O)CSc1cccc[n+]1[O-] | inconclusive: 28.2 µM [inhibitor, partial curve, poor fit] | 
N#Cc1cc[n+](CC(=O)c2ccc(NC(=O)c3ccccc3)cc2)cc1 | inconclusive: 0.794 µM [inhibitor, partial curve, poor fit] | 
COc1c(C=O)c(O)cc2c1C(=O)c1ccccc1C2=O | active: 12.6 µM and active: 7.94 µM | 
Cc1c(C)[n+](=O)c2c(n1[O-])C(Br)CCC2Br (stereo unspecified) | inconclusive: 44.7 µM [inhibitor, single point] | 
Cc1ccc2nc(Nc3ccccc3)c(/C=N/O)c(=O)n2c1 | inconclusive: 39.8 µM [inhibitor, single point] | 

Reference: PubChem BioAssay AID1460 (National Center for Advancing Translational Sciences (NCATS), 2008)
